# Assay results as given in the supplement of paper PMC8728848.
# This is one part of the list.
# What was measured:
# Test in all cases: glycan array binding signal (z-score within array); higher = stronger binding
# Details in all cases: glycan notation: IUPAC condensed, linker removed; mutation: A146Q
# Fuc(a1-2)Gal = target: Fuc(a1-2)Gal
# Outline: (§1)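 The binding signal is a Z-score computed within each array. Data were drawn from 3228 arrays in the Consortium for Functional Glycomics database, restricted to those with a known protein sequence. Scores were averaged over arrays of the same protein sequence at different concentrations or buffers, and over linkers, and negative values can be taken as non-binding.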
# Fuc(a1-2)Gal(b1-3)GalNAc = target: Fuc(a1-2)Gal(b1-3)GalNAc
# Outline: as §1
# [1] = target: Fuc(a1-2)Gal(b1-3)GalNAc(a1-3)[Fuc(a1-2)]Gal(b1-4)Glc
# Outline: as §1
# [2] = target: Fuc(a1-2)Gal(b1-3)GalNAc(a1-3)[Fuc(a1-2)]Gal(b1-4)GlcNAc
# Outline: as §1
# [3] = target: Fuc(a1-2)Gal(b1-3)GalNAc(b1-3)Gal
# Outline: as §1
# [4] = target: Fuc(a1-2)Gal(b1-3)GalNAc(b1-3)Gal(a1-4)Gal(b1-4)Glc
# Outline: as §1
# [5] = target: Fuc(a1-2)Gal(b1-3)GalNAc(b1-4)[Neu5Ac(a2-3)]Gal(b1-4)Glc
# Outline: as §1
# Fuc(a1-2)Gal(b1-3)GlcNAc = target: Fuc(a1-2)Gal(b1-3)GlcNAc
# Outline: as §1
# [6] = target: Fuc(a1-2)Gal(b1-3)GlcNAc(b1-2)Man(a1-3)[Fuc(a1-2)Gal(b1-3)GlcNAc(b1-2)Man(a1-6)]Man(b1-4)GlcNAc(b1-4)GlcNAc
# Outline: as §1
# [7] = target: Fuc(a1-2)Gal(b1-3)GlcNAc(b1-3)Gal(b1-4)Glc
# Outline: as §1
# [8] = target: Fuc(a1-2)Gal(b1-3)GlcNAc(b1-3)[Fuc(a1-3)[Gal(b1-4)]GlcNAc(b1-6)]Gal(b1-4)Glc
# Outline: as §1
# [9] = target: Fuc(a1-2)Gal(b1-3)[Fuc(a1-4)]GlcNAc
# Outline: as §1
# [10] = target: Fuc(a1-2)Gal(b1-3)[Fuc(a1-4)]GlcNAc(b1-2)Man(a1-3)[Fuc(a1-2)Gal(b1-3)[Fuc(a1-4)]GlcNAc(b1-2)Man(a1-6)]Man(b1-4)GlcNAc(b1-4)GlcNAc
# Outline: as §1
# [11] = target: Fuc(a1-2)Gal(b1-3)[Fuc(a1-4)]GlcNAc(b1-3)[Fuc(a1-3)[Gal(b1-4)]GlcNAc(b1-6)]Gal(b1-4)Glc
# Outline: as §1
# [12] = target: Fuc(a1-2)Gal(b1-3)[Fuc(a1-4)]GlcNAc(b1-3)[Gal(b1-4)GlcNAc(b1-6)]Gal(b1-4)Glc
# Outline: as §1
# Fuc(a1-2)Gal(b1-4)Glc = target: Fuc(a1-2)Gal(b1-4)Glc
# Outline: as §1
# Fuc(a1-2)Gal(b1-4)Glc6S = target: Fuc(a1-2)Gal(b1-4)Glc6S
# Outline: as §1
# Fuc(a1-2)Gal(b1-4)GlcNAc = target: Fuc(a1-2)Gal(b1-4)GlcNAc
# Outline: as §1
# [13] = target: Fuc(a1-2)Gal(b1-4)GlcNAc(b1-2)Man(a1-3)[Fuc(a1-2)Gal(b1-4)GlcNAc(b1-2)Man(a1-6)]Man(b1-4)GlcNAc(b1-4)GlcNAc
# Outline: as §1
# [14] = target: Fuc(a1-2)Gal(b1-4)GlcNAc(b1-3)Gal(b1-4)GlcNAc
# Outline: as §1
# [15] = target: Fuc(a1-2)Gal(b1-4)GlcNAc(b1-3)Gal(b1-4)GlcNAc(b1-3)Gal(b1-4)GlcNAc
# Outline: as §1
# [16] = target: Fuc(a1-2)Gal(b1-4)GlcNAc(b1-3)GalNAc
# Outline: as §1
# [17] = target: Fuc(a1-2)Gal(b1-4)GlcNAc6S
# Outline: as §1
# [18] = target: Fuc(a1-2)Gal(b1-4)[Fuc(a1-3)]GlcNAc
# Outline: as §1
# [19] = target: Fuc(a1-2)Gal(b1-4)[Fuc(a1-3)]GlcNAc(b1-2)Man(a1-3)[Fuc(a1-2)Gal(b1-4)[Fuc(a1-3)]GlcNAc(b1-2)Man(a1-6)]Man(b1-4)GlcNAc(b1-4)GlcNAc
# Outline: as §1
# [20] = target: Fuc(a1-2)Gal(b1-4)[Fuc(a1-3)]GlcNAc(b1-3)Gal(b1-4)[Fuc(a1-3)]GlcNAc
# Outline: as §1
# [21] = target: Fuc(a1-2)Gal(b1-4)[Fuc(a1-3)]GlcNAc(b1-3)Gal(b1-4)[Fuc(a1-3)]GlcNAc(b1-3)Gal(b1-4)[Fuc(a1-3)]GlcNAc
# Outline: as §1
# Fuc(a1-2)Gal6S(b1-4)Glc = target: Fuc(a1-2)Gal6S(b1-4)Glc
# Outline: as §1
# [22] = target: Fuc(a1-2)Gal6S(b1-4)Glc6S
# Outline: as §1
# [23] = target: Fuc(a1-2)Gal6S(b1-4)GlcNAc
# Outline: as §1
# Fuc(a1-2)[Gal(a1-3)]Gal = target: Fuc(a1-2)[Gal(a1-3)]Gal
# Outline: as §1
# [24] = target: Fuc(a1-2)[Gal(a1-3)]Gal(b1-3)GlcNAc
# Outline: as §1
# [25] = target: Fuc(a1-2)[Gal(a1-3)]Gal(b1-3)GlcNAc(b1-2)Man(a1-3)[Fuc(a1-2)[Gal(a1-3)]Gal(b1-3)GlcNAc(b1-2)Man(a1-6)]Man(b1-4)GlcNAc(b1-4)GlcNAc
# Outline: as §1
# [26] = target: Fuc(a1-2)[Gal(a1-3)]Gal(b1-4)Glc
# Outline: as §1
# [27] = target: Fuc(a1-2)[Gal(a1-3)]Gal(b1-4)GlcNAc
# Outline: as §1
# [28] = target: Fuc(a1-2)[Gal(a1-3)]Gal(b1-4)GlcNAc(b1-2)Man(a1-3)[Fuc(a1-2)[Gal(a1-3)]Gal(b1-4)GlcNAc(b1-2)Man(a1-6)]Man(b1-4)GlcNAc(b1-4)GlcNAc
# Outline: as §1
# [29] = target: Fuc(a1-2)[Gal(a1-3)]Gal(b1-4)[Fuc(a1-3)]GlcNAc
# Outline: as §1
# [30] = target: Fuc(a1-2)[Gal(a1-4)]Gal(b1-4)GlcNAc
# Outline: as §1
# [31] = target: Fuc(a1-2)[GalNAc(a1-3)]Gal
# Outline: as §1
# [32] = target: Fuc(a1-2)[GalNAc(a1-3)]Gal(b1-3)GalNAc(a1-3)[Fuc(a1-2)]Gal(b1-4)GlcNAc
# Outline: as §1
# [33] = target: Fuc(a1-2)[GalNAc(a1-3)]Gal(b1-3)GlcNAc
# Outline: as §1
# [34] = target: Fuc(a1-2)[GalNAc(a1-3)]Gal(b1-3)GlcNAc(b1-2)Man(a1-3)[Fuc(a1-2)[GalNAc(a1-3)]Gal(b1-3)GlcNAc(b1-2)Man(a1-6)]Man(b1-4)GlcNAc(b1-4)GlcNAc
# Outline: as §1
# [35] = target: Fuc(a1-2)[GalNAc(a1-3)]Gal(b1-4)Glc
# Outline: as §1
# [36] = target: Fuc(a1-2)[GalNAc(a1-3)]Gal(b1-4)GlcNAc
# Outline: as §1
# [37] = target: Fuc(a1-2)[GalNAc(a1-3)]Gal(b1-4)GlcNAc(b1-2)Man(a1-3)[Fuc(a1-2)[GalNAc(a1-3)]Gal(b1-4)GlcNAc(b1-2)Man(a1-6)]Man(b1-4)GlcNAc(b1-4)GlcNAc
# Outline: as §1
# [38] = target: Fuc(a1-2)[GalNAc(a1-3)]Gal(b1-4)GlcNAc(b1-3)Gal(b1-4)GlcNAc
# Outline: as §1
# [39] = target: Fuc(a1-2)[GalNAc(a1-3)]Gal(b1-4)GlcNAc(b1-3)Gal(b1-4)GlcNAc(b1-3)Gal(b1-4)GlcNAc
# Outline: as §1
# [40] = target: Fuc(a1-2)[GalNAc(a1-3)]Gal(b1-4)[Fuc(a1-3)]GlcNAc
# Outline: as §1
# [41] = target: Fuc(a1-2)[GalNAc(a1-4)]Gal(b1-4)GlcNAc
# Outline: as §1
# [42] = target: Fuc(a1-2)[GalNAc(b1-3)]Gal
# Outline: as §1
# Fuc(a1-3)GlcNAc = target: Fuc(a1-3)GlcNAc
# Outline: as §1
# [43] = target: Fuc(a1-3)[Gal(b1-4)]Glc6S
# Outline: as §1
# [44] = target: Fuc(a1-3)[Gal(b1-4)]GlcNAc
# Outline: as §1
# [45] = target: Fuc(a1-3)[Gal(b1-4)]GlcNAc(b1-2)Man(a1-3)[Fuc(a1-3)[Gal(b1-4)]GlcNAc(b1-2)Man(a1-6)]Man(b1-4)GlcNAc(b1-4)GlcNAc
# Outline: as §1
# [46] = target: Fuc(a1-3)[Gal(b1-4)]GlcNAc(b1-3)Gal(b1-3)[Fuc(a1-4)]GlcNAc
# Outline: as §1
# [47] = target: Fuc(a1-3)[Gal(b1-4)]GlcNAc(b1-3)GalNAc
# Outline: as §1
# [48] = target: Fuc(a1-3)[Gal(b1-4)]GlcNAc(b1-4)Gal(b1-4)[Fuc(a1-3)]GlcNAc
# Outline: as §1
# [49] = target: Fuc(a1-3)[Gal(b1-4)]GlcNAc(b1-4)Gal(b1-4)[Fuc(a1-3)]GlcNAc(b1-4)Gal(b1-4)[Fuc(a1-3)]GlcNAc
# Outline: as §1
# [50] = target: Fuc(a1-3)[Gal(b1-4)]GlcNAc(b1-6)[Gal(b1-3)GlcNAc(b1-3)]Gal(b1-4)Glc
# Outline: as §1
# [51] = target: Fuc(a1-3)[Gal(b1-4)]GlcNAc6S
# Outline: as §1
binder,measurement,setting,value
"Gal 3 (Homo sapiens), P17931 (protein) MADNFSLHDALSGSGNPNPQGWPGAWGNQPAGAGGYPGASYPGAYPGQAPPGAYPGQAPPGAYHGAPGAYPGAPAPGVYPGPPSGPGAYPSSGQPSAPGAYPATGPYGAPAGPLIVPYNLPLPGGVVPRMLITILGTVKPNANRIQLDFQRGNDVAFHFNPRFNENNRRVIVCNTKLDNNWGREERQSVFPFESGKPFKIQVLVEPDHFKVAVNDAHLLQYNHRVKKLNEISKLGISGDIDLTSASYTMI",glycan array binding signal (z-score),Fuc(a1-2)Gal,-0.171
same,glycan array binding signal (z-score),Fuc(a1-2)Gal(b1-3)GalNAc,-0.2
same,glycan array binding signal (z-score),[1],-0.201
same,glycan array binding signal (z-score),[2],-0.186
same,glycan array binding signal (z-score),[3],-0.177
same,glycan array binding signal (z-score),[4],-0.193
same,glycan array binding signal (z-score),[5],-0.19
same,glycan array binding signal (z-score),Fuc(a1-2)Gal(b1-3)GlcNAc,-0.105
same,glycan array binding signal (z-score),[6],-0.147
same,glycan array binding signal (z-score),[7],0.176
same,glycan array binding signal (z-score),[8],-0.199
same,glycan array binding signal (z-score),[9],-0.192
same,glycan array binding signal (z-score),[10],-0.192
same,glycan array binding signal (z-score),[11],-0.195
same,glycan array binding signal (z-score),[12],-0.015
same,glycan array binding signal (z-score),Fuc(a1-2)Gal(b1-4)Glc,-0.189
same,glycan array binding signal (z-score),Fuc(a1-2)Gal(b1-4)Glc6S,-0.188
same,glycan array binding signal (z-score),Fuc(a1-2)Gal(b1-4)GlcNAc,0.166
same,glycan array binding signal (z-score),[13],0.701
same,glycan array binding signal (z-score),[14],1.45
same,glycan array binding signal (z-score),[15],2.14
same,glycan array binding signal (z-score),[16],-0.164
same,glycan array binding signal (z-score),[17],0.163
same,glycan array binding signal (z-score),[18],-0.199
same,glycan array binding signal (z-score),[19],-0.171
same,glycan array binding signal (z-score),[20],-0.201
same,glycan array binding signal (z-score),[21],-0.166
same,glycan array binding signal (z-score),Fuc(a1-2)Gal6S(b1-4)Glc,-0.201
same,glycan array binding signal (z-score),[22],-0.194
same,glycan array binding signal (z-score),[23],-0.19
same,glycan array binding signal (z-score),Fuc(a1-2)[Gal(a1-3)]Gal,-0.199
same,glycan array binding signal (z-score),[24],3.36
same,glycan array binding signal (z-score),[25],9.93
same,glycan array binding signal (z-score),[26],2.81
same,glycan array binding signal (z-score),[27],3.94
same,glycan array binding signal (z-score),[28],10.3
same,glycan array binding signal (z-score),[29],-0.187
same,glycan array binding signal (z-score),[30],-0.19
same,glycan array binding signal (z-score),[31],-0.167
same,glycan array binding signal (z-score),[32],-0.199
same,glycan array binding signal (z-score),[33],-0.178
same,glycan array binding signal (z-score),[34],-0.197
same,glycan array binding signal (z-score),[35],-0.195
same,glycan array binding signal (z-score),[36],-0.199
same,glycan array binding signal (z-score),[37],-0.192
same,glycan array binding signal (z-score),[38],-0.179
same,glycan array binding signal (z-score),[39],0.756
same,glycan array binding signal (z-score),[40],-0.2
same,glycan array binding signal (z-score),[41],-0.192
same,glycan array binding signal (z-score),[42],-0.195
same,glycan array binding signal (z-score),Fuc(a1-3)GlcNAc,-0.194
same,glycan array binding signal (z-score),[43],-0.169
same,glycan array binding signal (z-score),[44],-0.19
same,glycan array binding signal (z-score),[45],-0.18
same,glycan array binding signal (z-score),[46],-0.201
same,glycan array binding signal (z-score),[47],-0.191
same,glycan array binding signal (z-score),[48],-0.192
same,glycan array binding signal (z-score),[49],-0.203
same,glycan array binding signal (z-score),[50],-0.182
same,glycan array binding signal (z-score),[51],-0.197
